Hit rate of the full screen: of about 350,000 compounds, about 260 (0.074%) were called active. Inconclusive results, whose numbers are uncertain, are shown with a selection of clear calls. Calls come from the whole dose curve; as a rule, active = well fitted inhibition curve with a large enough effect; inconclusive = small, poorly fitted or top-dose-only effect; inactive = no such curve, though single readings can be large or run the other way. Where the call is inconclusive, the potency comes from a doubtful curve fit.
Biological target: Ferritin light chain (Equus caballus) (UniProt P02791)
Experiment: qHTS Assay for Identification of Novel General Anesthetics; note: nearly all actives have a fitted effect of over 20% in size
Conditions: apoferritin/1-aminoanthracene competitive binding, fluorescence; series mostly up to 77.5 µM
How it was run: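 Steps: apoferritin (10 uM) was premixed with half-saturated 1-AMA in PBS, compounds were pin-transferred, plates stood 10 min at room temperature, fluorescence was read at 380/535 nm, and curves were fitted with a Hill equation.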
Potency is the fitted concentration of half-maximal effect; tags give direction and shape of the fitted curve.

UniProt P02791, sequence (P02791 whole entry, looked up): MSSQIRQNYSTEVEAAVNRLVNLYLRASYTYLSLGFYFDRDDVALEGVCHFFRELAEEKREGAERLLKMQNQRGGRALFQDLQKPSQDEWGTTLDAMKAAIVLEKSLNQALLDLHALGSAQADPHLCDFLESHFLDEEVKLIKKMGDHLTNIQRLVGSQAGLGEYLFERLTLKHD

| SMILES | Potency |
| --- | --- |
| Cc1ccc(OCC(=O)N2CCCCCC2)c(C)c1 | inconclusive: 39.8 µM [inhibitor, single point] |
| CCOc1cc(C(=O)N2CC(=O)Nc3ccc(C)cc3C2c2ccccc2)cc(OCC)c1OCC (stereo unspecified) | inconclusive: 6.31 µM [inhibitor, partial curve] |
| NNC(=O)c1sccc1OCc1ccc(Cl)cc1Cl | inconclusive: 31.6 µM [inhibitor, partial curve] |
| O=C1N[C@@H]2[C@H](CCCCC(=O)Oc3ccc([N+](=O)[O-])cc3)SC[C@H]2N1 | inactive |
| O=C(C1CCCCC1)N1CCc2ccccc21 | inconclusive: 20 µM [inhibitor, partial curve] |
| COc1ccc([C@H]2OCC3C2CO[C@@H]3c2ccc(OC)c(OC)c2)cc1OC (stereo partly specified) | inactive |
| Cc1ccc(CNS(=O)(=O)/C=C/c2ccc3c(c2)OCO3)cc1 | inconclusive: 44.7 µM [inhibitor, partial curve] |
| Clc1ccccc1CONc1ncnc2nonc12 | inactive |
| CCOC(=O)N(CC)OC(=O)Nc1ccc(Cl)cc1 | inconclusive: 50.1 µM [inhibitor, partial curve, poor fit] |
| N#Cc1sc(NCc2ccccc2)nc1Cl | inconclusive: 8.91 µM [inhibitor, partial curve] |
| O=C1C(NS(=O)(=O)c2cccs2)=C(N2CCN(c3cccc(C(F)(F)F)c3)CC2)C(=O)c2ccccc21 | inconclusive: 22.4 µM [inhibitor, partial curve] |
| CCCC(=O)NCCc1cc2cc(C)c(C)cc2[nH]c1=O | inactive |
| CCOC(=O)N1CCC(NC(=O)c2cnn(-c3ccc(F)cc3)c2-n2cccc2)CC1 | inactive |
| Cc1[nH]c2ccccc2c1N=Nc1ccc(F)cc1 | inconclusive: 35.5 µM [inhibitor, partial curve] |
| CCn1nc(C)cc1C(=O)N1CCCC(C(=O)c2ccc(Oc3ccccc3)cc2)C1 (stereo unspecified) | inconclusive: 15.8 µM [inhibitor, partial curve] |
| CCOC(=O)C1Cn2c(nc3c(c2=O)C(C)(CC)Cc2ccccc2-3)S1 (stereo unspecified) | inconclusive: 31.6 µM [inhibitor, partial curve] |
| COc1ccc(OC/C(O)=C(\C#N)c2nc3ccccc3[nH]2)cc1 | inactive |
| Cc1cc(OCCCC(=O)NC2=NCCS2)ccc1Cl | inconclusive: 31.6 µM [inhibitor, single point] |
| C/C(=N\NC(=O)CNC(=O)c1ccccc1Br)c1ccco1 | inconclusive: 50.1 µM [inhibitor, single point] |
| CCCCn1cc(S(=O)(=O)c2ccccc2)c(=O)c2cc(F)c(N3CCN(CCC)CC3)cc21 | inconclusive: 3.55 µM [inhibitor, full curve, poor fit] |
| CCc1cc(C(=O)OC)c(NC(=O)CC2SC(=NC)N(C)C2=O)s1 (stereo unspecified) | inactive |
| CN(c1ccccc1C(=O)Nc1cccc(Cl)c1Cl)S(C)(=O)=O | inactive |
| Cc1nc2sc(C(N)=O)c(N)c2c(C)c1CC(=O)c1ccccc1 | inactive |

| SMILES | Potency |
| --- | --- |
| Cc1ccc(Cn2ccc(NC(=O)C3C4CCC(C4)C3C(=O)O)n2)cc1 (stereo unspecified) | inconclusive: 28.2 µM [inhibitor, partial curve] |
| Cc1ccc2c(c1)C(=O)C(=O)N2Cc1ccc(OCCC(C)C)cc1 | inactive |
| O=C(CSC(=S)N1CCSCC1)c1ccccc1 | inconclusive: 50.1 µM [inhibitor, single point] |
| COc1ccc(NC(=O)c2cc(C(C)=O)n3ccccc23)cc1 | inactive |
| C=CCN(c1cccc(C(F)(F)F)c1)S(=O)(=O)c1cccc(C(=O)OCC(=O)NC(N)=O)c1 | inconclusive: 39.8 µM [inhibitor, single point] |
| Cc1ccc(Nc2nc(CSc3nnc(-c4cccs4)o3)cs2)cc1 | inconclusive: 39.8 µM [inhibitor, partial curve, poor fit] |
| O=C(CSc1nc(=O)n(Cc2cccnc2)c2c1CCC2)Nc1cccc(Cl)c1 | inconclusive: 35.5 µM [inhibitor, partial curve] |
| Cc1cccc(NC(=O)c2cc(-c3cc(C)c(C)cc3O)n[nH]2)c1 | inactive |
| CCC/C(O)=C1\C(=O)CC(C)(C)CC1=Nc1ccc(OC)cc1OC | inconclusive: 44.7 µM [inhibitor, partial curve] |
| CCC1CN(C(=O)Nc2cccc(C)c2)c2cc(C)ccc2O1 (stereo unspecified) | inconclusive: 22.4 µM [inhibitor, partial curve] |
| CC(=O)Nc1nnc(COc2ccccc2)s1 | inconclusive: 39.8 µM [inhibitor, single point] |
| Cc1ccc(OCc2ccc(Br)cc2)c([N+](=O)[O-])n1 | inconclusive: 25.1 µM [inhibitor, partial curve] |
| O=C(CCc1ccccc1)Nc1nc2c(F)cc(F)cc2s1 | inactive |
| O=C(Cc1ccc(Cl)cc1)Nc1ncc([N+](=O)[O-])s1 | inactive |
| CCC(NC(=O)c1cc(COc2ccc(Cl)cc2OC)on1)c1ccncc1 (stereo unspecified) | inconclusive: 14.1 µM [inhibitor, partial curve] |
| NC(=O)[C@H]1CCCN1C(=O)[C@H](Cc1cnc[nH]1)NC(=O)[C@@H]1CCC(=O)N1 | inactive |
| Cc1nc2ncnn2c(C)c1CCC(=O)N1CCOCC1 | inactive |
| Cc1nn(-c2nc3ccccc3[nH]2)c(=O)c2ccccc12 | inactive |
| CC(C)(C)c1ccc(-c2nc(SCCOc3ccc(Cl)cc3)n3[nH]c(=O)cc3n2)cc1 | inconclusive: 39.8 µM [inhibitor, partial curve] |
| O=C(COC(=O)/C=C/c1ccc(S(=O)(=O)N2CCOCC2)cc1)NCc1ccc2c(c1)OCO2 | inconclusive: 28.2 µM [inhibitor, single point] |
| CC(C)(C)c1ccc(OCCNCc2ccccc2)cc1 | inconclusive: 28.2 µM [inhibitor, partial curve] |
| Cc1ccc(NC(=O)CCC(=O)N/N=C/c2ccco2)c(C)c1 | inconclusive: 50.1 µM [inhibitor, single point] |
| O=C1c2ccccc2C(=O)N1CC(O)CNc1ccc(Br)cc1 (stereo unspecified) | inconclusive: 25.1 µM [inhibitor, single point] |
